Assay results published in US20260103529A1, “Amino Acid Sequences Directed Against the Melanocortin 4 Receptor and Polypeptides Comprising the Same for the Treatment of MC4R-Related Diseases and Disorders” (Confo Therapeutics N.V., priority 2022, published 2026).

Target: MC4R of the CHO stable cell line used for radioligand displacement (Table 1A) (UniProt P32245)
Assay: radioligand displacement, CHO stable cell line, n = 2; radioligand not named

Radioligand displacement (IC50 or Ki not stated): 0.89 nM
B1: pN0162-huFcIgG1_N297A (Fc fusion)
chain: QVQLVESGGGLVQPGGSLRLSCAASGSAFSLNVMGWYRQTPGNQRALVAEITKDGSTNYADSAKGRFTISRDNAKNTVHLQMDSLKPEDTAVYYCKARTGRIVRPLDYWGQGTQVTVSS[in this place human IgG1 Fc with changes]
